Test results as given in publication PMC6092318, “Keap1–MCM3 interaction is a potential coordinator of molecular machineries of antioxidant response and genomic DNA replication in metazoa” (Scientific Reports, 2018).
Like-named read-outs stand apart in the source and are kept apart here. These are yes or no findings as the source states them, for the method shown. For part of these data: In cells and extracts the contact can be indirect. Some entries that bind do so weakly or less than the wild type. For part of these data: Where a sequence is shown, tags or fusion partners need not be part of it.

Chains of the proteins cited; added tags and fusions are not shown. Lines headed by an entry give the natural chain unless they say otherwise; changes in a name come on top.
UniProt Q9Z2X8: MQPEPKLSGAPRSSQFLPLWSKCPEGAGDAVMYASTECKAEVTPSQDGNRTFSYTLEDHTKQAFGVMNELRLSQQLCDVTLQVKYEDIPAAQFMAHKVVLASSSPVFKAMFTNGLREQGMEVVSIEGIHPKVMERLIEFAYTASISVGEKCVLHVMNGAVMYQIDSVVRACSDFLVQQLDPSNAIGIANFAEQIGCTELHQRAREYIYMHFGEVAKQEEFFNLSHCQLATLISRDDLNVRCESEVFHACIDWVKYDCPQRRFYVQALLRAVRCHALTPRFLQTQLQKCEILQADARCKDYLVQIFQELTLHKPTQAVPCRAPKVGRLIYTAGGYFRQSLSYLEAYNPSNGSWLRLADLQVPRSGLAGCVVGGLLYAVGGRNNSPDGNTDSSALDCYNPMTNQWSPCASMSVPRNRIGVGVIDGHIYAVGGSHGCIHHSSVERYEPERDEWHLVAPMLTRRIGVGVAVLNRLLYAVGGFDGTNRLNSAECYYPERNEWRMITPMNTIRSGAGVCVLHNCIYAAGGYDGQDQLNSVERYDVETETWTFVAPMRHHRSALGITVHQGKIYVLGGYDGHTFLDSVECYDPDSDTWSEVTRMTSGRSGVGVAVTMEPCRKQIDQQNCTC
UniProt Q61881: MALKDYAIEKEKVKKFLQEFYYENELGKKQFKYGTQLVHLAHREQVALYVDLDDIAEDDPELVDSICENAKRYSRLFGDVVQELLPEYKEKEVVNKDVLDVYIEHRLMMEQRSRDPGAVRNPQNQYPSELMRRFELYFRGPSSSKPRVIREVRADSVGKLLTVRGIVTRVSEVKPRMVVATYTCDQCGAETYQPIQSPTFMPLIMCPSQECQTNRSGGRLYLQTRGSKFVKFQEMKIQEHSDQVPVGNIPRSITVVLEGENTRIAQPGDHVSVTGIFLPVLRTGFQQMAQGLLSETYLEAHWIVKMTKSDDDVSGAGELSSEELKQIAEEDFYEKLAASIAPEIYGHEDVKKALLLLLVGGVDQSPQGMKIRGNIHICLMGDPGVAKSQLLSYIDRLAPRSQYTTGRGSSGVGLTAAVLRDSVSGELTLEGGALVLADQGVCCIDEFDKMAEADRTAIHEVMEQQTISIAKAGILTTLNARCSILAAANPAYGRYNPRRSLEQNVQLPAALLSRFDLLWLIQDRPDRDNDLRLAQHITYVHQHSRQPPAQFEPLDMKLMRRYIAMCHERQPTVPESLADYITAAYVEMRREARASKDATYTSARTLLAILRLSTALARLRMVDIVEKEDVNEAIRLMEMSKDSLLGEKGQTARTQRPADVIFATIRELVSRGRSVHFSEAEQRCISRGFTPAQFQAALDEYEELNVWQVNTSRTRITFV

B1: HA-MCM-BP (mouse, baculovirus) (natural protein, UniProt Q8R3C0 1-642, looked up)
chain: MPCGEDWLSHPLGIVQGFFAQNGVNPDWEKKVIEYFKEKLKENNAPKWVPSLNEVPLHYLKPNSFVKFRCMIQDMFDPEFYMGIYETVNQNTKARVLHFGKYRDVAECGPQQELDLSSPRSTTSERQTFYCVPVPGESSWVKEAYVNANQARVSPSTSYTPSRHKRSYEDDEDMDLQPSKQKEQHPGSRQAGGLGGLHWCGEPKRLETEASSGQQLNTLNLSSPFDLNFPLPGEKGPACLVKVYEDWDCFKVNDVLELYGVLSVDPVLSVLNSEERDASALLDPMECTDMAEEQRVHSPPASLVPRIHVILAQKLQHINPLLPTCLNKEESRSCQFVSNFMSELSPVRAELLGFLTHALLGDSLAAEYLILHLISTVYTRRDVLPLGKFTVNLSGCPQNSTFTEHLYRIIQHLVPASFRLQMTIENMNQLKLIPHKDYTANRLVSGLLQLPNNTSLVIDETLLEQGQLDTPGVHNVTALSNLITWQKVDYDFSYHQMEFPCNINVLITSEGRSLLPADCQIHLQPQLIPPNMEEYMNGLLSAVLPSVLNKFRIYLTLLRFLDYNLSDDITKAVEDDFVEMRKDDPQSITADDLHQLLVVARFLSLSVGQTTLSRERWLRAKQLELSRKARLQQQKSVNGNEL
notes: MCM-BP, mouse; cDNA cloned into pFastBac1; source: Sf9, baculovirus infected, in extract

Assays:
[1] = biological target: strep-Keap1 (mouse, wild type, baculovirus) (mouse) (UniProt Q9Z2X8); assay: pull-down; Strep-Tactin beads (strep-Keap1 as bait) on extracts of baculovirus co-infected Sf9 cells, 1 hr at 4 °C, washes with 250 mM KCl buffer pH 7.8, Western blot
[2] = biological target: strep-Keap1 mutant R380A/R415A (mouse, baculovirus) (mouse) (UniProt Q9Z2X8); assay: as above
[3] = biological target: T1, FLAG-MCM3 (mouse, wild type, baculovirus) (mouse) (UniProt P25206); assay: SEC; MCM2-7 from baculovirus co-expression in Sf9 cells, size exclusion chromatography profile (Supplementary Fig. S7); details not shown
T1 sequence: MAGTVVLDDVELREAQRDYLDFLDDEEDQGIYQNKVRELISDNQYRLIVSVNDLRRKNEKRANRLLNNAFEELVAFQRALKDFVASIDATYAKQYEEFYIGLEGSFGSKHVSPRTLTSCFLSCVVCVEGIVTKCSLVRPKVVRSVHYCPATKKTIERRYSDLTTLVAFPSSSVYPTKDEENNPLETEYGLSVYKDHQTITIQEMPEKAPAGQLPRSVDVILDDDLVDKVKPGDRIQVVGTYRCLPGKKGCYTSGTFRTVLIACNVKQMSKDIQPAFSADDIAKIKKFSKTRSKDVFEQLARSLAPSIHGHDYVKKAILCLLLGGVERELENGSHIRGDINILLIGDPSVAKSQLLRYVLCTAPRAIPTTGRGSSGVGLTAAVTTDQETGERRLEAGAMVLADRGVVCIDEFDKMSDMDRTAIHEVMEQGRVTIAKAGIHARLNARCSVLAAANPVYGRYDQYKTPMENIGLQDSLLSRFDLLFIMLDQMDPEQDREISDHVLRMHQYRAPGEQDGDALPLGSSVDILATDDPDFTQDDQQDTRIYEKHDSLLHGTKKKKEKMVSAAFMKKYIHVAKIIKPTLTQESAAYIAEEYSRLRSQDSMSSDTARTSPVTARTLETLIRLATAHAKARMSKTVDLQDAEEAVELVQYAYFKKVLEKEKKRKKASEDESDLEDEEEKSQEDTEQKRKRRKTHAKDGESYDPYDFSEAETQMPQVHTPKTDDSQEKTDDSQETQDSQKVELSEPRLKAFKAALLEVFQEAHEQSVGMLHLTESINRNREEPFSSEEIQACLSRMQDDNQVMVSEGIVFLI

[4] = biological target: strep-Keap1 mutant R380A/R415A (mouse, baculovirus) (mouse) (UniProt Q9Z2X8); assay: pull-down; Strep-Tactin beads (strep-Keap1 as bait) on extracts of baculovirus co-infected Sf9 cells, 1 hr at 4 °C, washes with 250 mM KCl buffer pH 7.8, Western blot; remark: listed apart in the source
[5] = biological target: T1, FLAG-MCM3 (mouse, wild type, baculovirus) (mouse); assay: co-IP; anti-FLAG beads (FLAG-MCM3 as bait; called FLAG-MCM3 pulldown) on extracts of baculovirus co-infected Sf9 cells, 1 hr at 4 °C, washes with 250 mM KCl buffer pH 7.8, Western blot
[6] = biological target: T1, FLAG-MCM3 (mouse, wild type, baculovirus) (mouse); assay: pull-down; tandem affinity (strep-Keap1 then FLAG-MCM3) from Sf9 cells expressing all six MCM2-7 subunits, Keap1 and MCM-BP, 100 mM KCl buffer, Coomassie stained gel, bands verified by mass spectrometry

Row | Molecule | binding [1] | binding [2] | binding [3] | binding [4] | binding [5] | binding [6]
1 | MCM7 (mouse, wild type, baculovirus) (from UniProt Q61881 1-719) | binds | no binding | binds |  |  | 
2 | B1 |  |  |  | no binding | binds | binds
